From PubChem BioAssay AID485364 (National Center for Advancing Translational Sciences (NCATS), 2010)
Out of some 360,000 compounds screened, about 11,000 (3.1%) were called active. Inconclusive means that the source gave no clear call. Such entries were picked first, then a sample of the others. Calls follow the shape of the dose curve; as a rule, active = well fitted inhibition curve with a large enough effect; inconclusive = small, poorly fitted or top-dose-only effect; inactive = no such curve, though single readings can be large or run the other way. No potency is given beside an inconclusive call; the fits are too rough.

Molecular target: Schistosoma mansoni thioredoxin glutathione reductase (TGR) (UniProt Q962Y6)
Assay: qHTS Assay for the Inhibitors of Schistosoma Mansoni Peroxiredoxins; also: nearly all actives have a fitted effect of over 60% in size
Conditions: purified TGR, DTNB reduction, TNB absorbance 405 nm; series mostly up to 114 µM
Procedure, shortened: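 Kinetic colorimetric format: TGR-catalysed, NADPH-driven DTNB reduction monitored via TNB absorbance. Enzyme dispensed at 20 nM; compound exposure 15 min at room temperature before reaction start.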
Potency is read from the fitted curve at half-maximal effect; tags tell the direction and shape of the fitted curve.

SMILES | Potency
COCC(=O)Oc1c(S(=O)(=O)c2ccccc2)c(C)nn1C(C)(C)C | inconclusive [inhibitor, partial curve]
O=C(CNCc1ccccc1)NCCCN1CCCC1=O | inconclusive [inhibitor, full curve]
COc1ccc2[nH]cc(CCNC(=O)Cc3ccc(Cl)cc3)c2c1 | inactive
O=C1/C(=C/c2ccc(F)cc2)SC(=S)N1N1CCOCC1 | inconclusive [inhibitor, single point]
COc1ccccc1N(CC(=O)N1CCCCCC1)S(=O)(=O)c1ccc(C)cc1 | inactive
CCOC(=O)C1CCCN(C2CC(=O)N(c3cccc(C(F)(F)F)c3)C2=O)C1 (stereo unspecified) | inconclusive [inhibitor, single point]
O=C(C1COc2ccccc2O1)N1CCN(c2nc3c(F)cc(F)cc3s2)CC1 (stereo unspecified) | inactive
CCNc1cc(=O)n(C)c(=O)n1C | inconclusive [inhibitor, full curve, poor fit]
Cc1ccc2cc3c(NC(=O)c4ccco4)nn(CC(C)C)c3nc2c1 | inconclusive [inhibitor, partial curve]
CN(CCc1nc2ccc(Cl)cc2[nH]1)Cc1nc(CC2CC2)no1 | inconclusive [inhibitor, full curve]
Cc1ccc(C)n1CCN1CCN(S(=O)(=O)c2ccc(F)cc2F)CC1 | inconclusive [inhibitor, partial curve]
COc1ccc(NCc2nnc(-c3ccccc3)o2)cc1 | inactive
COc1cccc(OC)c1C(=O)Nc1ccc(-c2nc3ncccc3o2)cc1 | inactive
CC(C)(C)c1ccccc1NC(=O)COC(=O)CN1C(=O)NC2(CCCC2)C1=O | inconclusive [inhibitor, partial curve]
CC(=O)c1sc(Nc2nc3cc4c(cc3s2)OCO4)nc1C | inconclusive [inhibitor, partial curve]
O=C(CCc1ccc(CCC(=O)c2cccs2)s1)c1cccs1 | inconclusive [inhibitor, full curve, poor fit]
CCN1CCCC1CNC(=O)c1ccc(Sc2ccccc2Cl)c([N+](=O)[O-])c1 (stereo unspecified) | inactive
O=C(NC1CCCC1)c1ccc(CS(=O)(=O)Cc2ccccc2F)o1 | inconclusive [inhibitor, full curve]
CC(C)c1ccc(N2C(=O)NC(=O)/C(=C/c3cnc(-c4ccccc4)nc3)C2=O)cc1 | active: 3.55 µM
Cc1ccc(C(=O)Oc2oc(-c3ccccc3)nc2C=Nc2ccc(N(C)C)cc2)cc1 | inconclusive [inhibitor, partial curve]
O=C(c1[nH]ncc1-c1ccc(Cl)cc1)C1CO1 (stereo unspecified) | inconclusive [inhibitor, full curve]
CN=c1scc(-c2ccc(F)cc2)n1/N=C/c1ccc(O)c(O)c1 | active: 11.2 µM
CC1(C)CC(=O)C(C=NCCN2CCN(C(=O)Cc3ccc(Cl)cc3)CC2)=C(O)C1 | inconclusive [inhibitor, single point]

SMILES | Potency
CCNC(=S)Nc1ccc(C)c(S(=O)(=O)Nc2ccccc2OC)c1 | active: 2.82 µM
COc1ccc(-c2nc(Cn3c(SCc4ccc(C)cc4)nc4ccncc43)c(C)o2)cc1OC | inconclusive [inhibitor, partial curve]
Cc1ccc(CNC(=O)c2ccc(Cl)c(S(N)(=O)=O)c2)n1C | inconclusive [inhibitor, partial curve]
O=C(CN1C(=O)NC2(CCCCC2)C1=O)Nc1ccccc1N1CCCC1 | inactive
COc1ccc(-c2ccc(NS(=O)(=O)c3ccc(NC(C)=O)cc3)cc2)nn1 | inactive
O=C(CSc1nnc(-c2ccccn2)n1Cc1ccco1)c1ccc(-c2ccccc2)cc1 | inconclusive [inhibitor, single point]
COc1cc(OC)cc(C(=O)NC(=S)Nc2ccc(Cl)c(C(=O)O)c2)c1 | active: 22.4 µM
CCc1oc(C(=O)OC)cc1CSC(=N)N | active: 20 µM
[O-][n+]1c2ccccc2[n+]([O-])c2cc(O)ccc21 | inconclusive [inhibitor, partial curve]
COc1ccc(Cc2noc(CN3CCCN(C4Cc5ccccc5C4)CC3)n2)cc1OC | inconclusive [inhibitor, full curve, poor fit]
O=C(Nc1ccccc1)c1cnc(N2CCCCC2)c2ccccc12 | inactive
O=C1C(N2CCOCC2)=C(n2nnc3ccccc32)C(=O)c2ccccc21 | inconclusive [inhibitor, single point]
COc1nc(N2CCOCC2)nc(-n2cccc2)n1 | inactive
COc1cc(NC2c3ncccc3C(=O)N2Cc2ccco2)cc(OC)c1OC (stereo unspecified) | inconclusive [inhibitor, partial curve, poor fit]
O=C(Cn1cnc2c(nnn2-c2ccccc2)c1=O)NCc1ccco1 | inconclusive [inhibitor, partial curve]
O=C(NCCS(=O)(=O)N1CCCCCC1)c1ccc(F)cc1 | inactive
CC1=C(C(=O)OCc2ccccc2)C(c2ccoc2)C(C#N)=C(N)O1 (stereo unspecified) | inconclusive [inhibitor, partial curve]
CCOc1ccc(Cl)cc1C(c1c(C)[nH][nH]c1=O)c1c(C)[nH][nH]c1=O | inconclusive [inhibitor, full curve]
O=C(NCCO)C(O)C(O)C(=O)NCCO (stereo unspecified) | inconclusive [inhibitor, partial curve]
COc1ccc(CC(=O)N2N=C(C)CC2(O)c2cccnc2)cc1OC (stereo unspecified) | inconclusive [inhibitor, single point]
S=C(NCc1ccco1)Nc1ccc(Cl)c(Cl)c1 | inactive
O=C(O)CC12CC3CC(C1)CC(n1ncc(NCc4ccc(F)cc4)c(Cl)c1=O)(C3)C2 | inconclusive [inhibitor, partial curve]
Cc1cc(O)c(C(C)C)cc1NC(=O)c1ccc(Cl)cc1 | inconclusive [inhibitor, full curve, poor fit]
